PubChem BioAssay AID1347073 (National Center for Advancing Translational Sciences (NCATS), 2019)
Screen size: about 45,000 compounds; about 200 (0.44%) were called active. Inconclusive results (about 7%) are left out. Calls come from the whole dose curve; as a rule, active = well fitted activation curve with a large enough effect; inconclusive = small, poorly fitted or top-dose-only effect; inactive = no such curve, though single readings can be large or run the other way. The list shows a part of the results.

Experiment: qHTS of TDP-43 Inhibitors: NCGC Sytravon Library Screen; note: 0% is about no effect; nearly all actives have a fitted effect of over 55% in size
Conditions: yeast TDP-43 toxicity rescue, BacTiter-Glo growth, 24 h; series mostly up to 46.1 µM; growth rescue (activation): at the top concentration
Outline: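 TDP-43-expressing yeast, pregrown in raffinose, seeded at OD600 0.02 in galactose medium with compound for 24 hr at 30 deg C. Growth read by BacTiter-Glo luminescence, so rescue of toxicity appears as activation.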

Row | Structure (SMILES) | growth rescue (activation)
1 | CCOc1ccccc1/C=C/C(=O)N1CCN(C(=O)c2ccco2)CC1 | inactive: 22.1%
2 | O=C(CP(=O)(O)CC(=O)c1ccccc1)c1ccccc1 | inactive: -2.54%
3 | COc1cc(C)c(C)cc1S(=O)(=O)NC1CC(C)(C)NC(C)(C)C1 | inactive: -13.4%
4 | CCC1CCCCN1C(=O)Cn1c(=O)n(CCCCCC(=O)NCc2ccccc2Cl)c(=O)c2sccc21 (stereo not given) | inactive: 3.18%
5 | Cc1ccc(S(=O)(=O)N(C)/N=C/c2ccc(N(C)C)cc2)cc1 | inactive: 12.5%
6 | COc1cc(N)c(Cl)cc1C(=O)OCC(=O)c1cccs1 | inactive: 2.02%
7 | O=S(c1ccc2ccccc2c1)c1cnns1 (stereo not given) | inactive: 27.5%
8 | O=C(N/N=C/c1ccc(Cl)cc1Cl)C(=O)NC1CC1 | inactive: 12.4%
9 | CC(=O)Nc1cc2nc(C)n(Cc3ccccc3)c2nc1C | inactive: 5.98%
10 | O=C(c1ccccc1)c1cn[nH]c1-c1ccccc1O | inactive: 5.12%
11 | O=C(c1nn2c(C(F)(F)F)cc(-c3cccs3)nc2c1Cl)N1CCCc2ccccc21 | inactive: 2.12%
12 | BrC(=C\c1ccccc1)/C=N/Nc1ccc2nncn2n1 | inactive: 7.85%
13 | O=C(NCC1CCCO1)C1CCN(C2CCN(C3CCCCCC3)CC2)CC1 (stereo not given) | inactive: 5.59%
14 | Cc1ccc(OCC(=O)Nc2ccc(S(=O)(=O)N3CCOCC3)cc2)c(C)c1 | inactive: 14.8%
15 | O=C(Nc1ccc(O)c(-c2nc3ccccc3o2)c1)C1(c2ccc([N+](=O)[O-])cc2)CCCC1 | inactive: 24.9%
16 | Cc1ccn2c(Nc3ccccc3C)c(-c3cccnc3)nc2c1 | inactive: -5.55%
17 | COc1ccc2cc(C(=O)C3CCCN(C(=O)CSc4nnc(C)o4)C3)ccc2c1 (stereo not given) | inactive: 23%
18 | COc1ccc(NS(=O)(=O)c2ccc3c(c2)NC(=O)CO3)cc1 | inactive: -3.6%
19 | O=C1c2cccc3cccc(c23)C(=O)N1CCc1ccccc1 | inactive: 3.97%
20 | CNS(=O)(=O)c1cc(NC(=O)CCCNC(=O)c2ccc(Cl)cc2)ccc1C | inactive: -6.56%
21 | CCN(CC)S(=O)(=O)c1cc(C(=O)N2CCc3ccccc32)ccc1Cl | inactive: 5.98%
22 | CC(c1nc2ccccc2c(=O)[nH]1)N1CCOCC1 (stereo not given) | inactive: 6.4%
23 | O=C(NC1CCCCC1)C(=S)NCCc1ccccc1 | inactive: 2.43%
24 | O=C1C(=O)N(Cc2ccco2)C(c2cccc(Cl)c2)/C1=C(\O)c1ccc2c(c1)OCCO2 (stereo not given) | inactive: 6.08%

Row | Structure (SMILES) | growth rescue (activation)
25 | O=C(CN1CCOCC1)NN=C1CCCCCCCCCCC1 | inactive: -14.4%
26 | CCN(Cc1nc(-c2ccc(OC)c(OC)c2)no1)C(=O)c1ccoc1C | inactive: 4.17%
27 | CCOc1ccc(C2/C(=C(\O)c3cccc(OC)c3)C(=O)C(=O)N2c2ccccn2)cc1OC (stereo not given) | inactive: -20.6%
28 | Cc1c(C(=O)N(C)Cc2cccc(F)c2)oc2c(Cl)cccc12 | inactive: 19.1%
29 | O=C(NC1CCCCC1)c1ccc2c(c1)OCO2 | inactive: 10.3%
30 | COc1ccc(/C=C2\SC(=S)N(NC(=O)c3csc4c3CCCC4)C2=O)cc1 | inactive: 31.4%
31 | CCC1CCC(NC(=O)Nc2cccc(OC)c2)CC1 (stereo not given) | inactive: 7.21%
32 | Cc1cc(=O)[nH]c(SCC(=O)NC2CCCCCC2)n1 | inactive: -1.26%
33 | Cc1ccc(C(=O)Nc2nnc([C@H]3C[C@H](O)[C@@H](CO)O3)s2)cc1 | inactive: -1.47%
34 | CN(Cc1cccs1)C(=O)CN1CCN(S(=O)(=O)c2ccc3c(c2)OCCCO3)CC1 | inactive: 9.75%
35 | O=C(O)Cn1cc(/C=C2\SC(=O)N(c3ccccc3)C2=O)c2ccccc21 | inactive: 5.54%
36 | COc1cc(/C=C/c2cc[n+](C)cc2)ccc1OCC(=O)Nc1ccccc1 | inactive: -4.24%
37 | Cc1ccccc1OCC(O)CN(Cc1ccccc1O)C1CCCCC1 (stereo not given) | inactive: 10.3%
38 | Cc1cc(OCC(=O)Nc2ccncc2)ccc1Br | inactive: 16.3%
39 | COc1ccccc1-n1c(/C=C/c2c(C)n(C)c3ccccc23)nc2ccccc2c1=O | inactive: 2.23%
40 | COc1cc(S(=O)(=O)Nc2cc(C)cc(C)c2)ccc1F | inactive: 2.8%
41 | Cc1nc2sc3c(c2c(=O)[nH]1)CCCCC3 | inactive: 28.1%
42 | CCc1nc2ccc(C(=O)N3CCN(C(=O)c4ccco4)CC3)cn2c1N(C)Cc1nccn1C | inactive: -1.96%
43 | CCN(CC)S(=O)(=O)c1ccc(F)c(C(=O)OC2CC(C)OC2=O)c1 (stereo not given) | inactive: 3.82%
44 | COc1cc(C=C(c2nc3ccccc3s2)c2nc3ccccc3s2)ccc1O | inactive: 34.7%
45 | CC(C(=O)NCCc1ccc(S(N)(=O)=O)cc1)N1C(=O)CC(C)(C)Sc2ccccc21 (stereo not given) | inactive: 3.44%
46 | CCc1nnc(NC(=O)C2CCN(C(=O)c3ccco3)CC2)s1 | inactive: 4.7%
47 | CCOC(=O)c1sc(N/N=C/c2ccccc2)nc1C | inactive: 11.7%
48 | COCCNC(=O)C1(C)CCN(Cc2ccccc2C#N)C1 (stereo not given) | inactive: -14.4%

Row | Structure (SMILES) | growth rescue (activation)
49 | C=CCOc1ccc(Br)cc1CNCCO | inactive: 1.83%
50 | Cc1ccc2ccccc2c1C(O)c1ncc(-c2ccccc2F)[nH]1 (stereo not given) | inactive: 19.8%
51 | O=c1cn[nH]c2ccccc12 | inactive: 20.4%
52 | C=CCOC(=O)C1=C(C)NC(SCC(N)=O)=C(C#N)C1c1cccs1 (stereo not given) | inactive: -6.27%
53 | COc1ccc(CN(C(=O)CCC(=O)N2CCCCC2)c2nccs2)cc1OC | inactive: 0.087%
54 | COc1ccc(CCC(=O)NNC(=O)c2cc(Cl)ccc2OC)cc1OC | inactive: 20.7%
55 | O=Cc1cn(CC(O)CN2CCCCC2)c2ccccc12 (stereo not given) | inactive: 10.5%
56 | COc1ccc(N2C(=O)/C(=C\c3ccco3)N=C2SCC(N)=O)cc1Cl | inactive: 11.4%
57 | COc1cc(OC)cc(C(=O)NC(C(=O)N2CCC2)C(C)C)c1 (stereo not given) | inactive: -1.19%
58 | COc1ccc(N(C)S(=O)(=O)c2cccc3nsnc23)cc1 | inactive: 21.5%
59 | Cc1oc(-c2ccccc2)cc1C(=O)Nc1ccccc1 | inactive: -3.27%
60 | CC1CC(CCC(=O)NC(=S)Nc2ccc(S(N)(=O)=O)cc2)C(=O)O1 (stereo not given) | inactive: 2.63%
61 | COc1ccc(-n2cnnc2)cc1 | inactive: -7.16%
62 | COc1ccc(OC)c(NC(=O)c2ccccc2NC(=O)c2ccco2)c1 | inactive: 18.4%
63 | CC1Oc2ccccc2N(CC(=O)NC2CCCC2)C1=O (stereo not given) | inactive: 8.45%
64 | C/C(CC(=O)Nc1cc(Cl)ccc1Cl)=N\NC(=O)COc1cccc(C)c1 | inactive: 9.32%
65 | CN(C)CCNC(=O)COc1ccc(Cl)cc1Cl | inactive: 18.7%
66 | Cc1cccc(Nc2nnc(-c3ccc(N4CCOCC4)c([N+](=O)[O-])c3)c3ccccc23)c1 | inactive: 4.54%
67 | Cc1cccc(C)c1OCc1cc(C(=O)N2CCN3CCCC3C2)no1 (stereo not given) | inactive: 7.68%
68 | O=C(CSc1nnnn1-c1cccc2ccccc12)NC(C(=O)O)(c1ccccc1)c1ccccc1 | inactive: 11.7%
69 | CC(C)c1ccc(NC(=O)CSc2ncccc2C(=O)Oc2cccc([N+](=O)[O-])c2)cc1 | inactive: 5.58%
70 | Cc1ccc(N2NC(=O)/C(=C/c3ccc(-c4ccc(Cl)c(C(=O)O)c4)o3)C2=O)cc1 | inactive: -7.76%
